Data reported in the supplement of paper PMC3334620.
The full ranking holds about 33,000 sequences; the median of “E-score (-0.5 to 0.5)” is about -0.021, and the highest 2% start at about 0.32. The list shows a part of the results.

Molecular target: T1, Zap1 (UniProt P47043)
T1 sequence: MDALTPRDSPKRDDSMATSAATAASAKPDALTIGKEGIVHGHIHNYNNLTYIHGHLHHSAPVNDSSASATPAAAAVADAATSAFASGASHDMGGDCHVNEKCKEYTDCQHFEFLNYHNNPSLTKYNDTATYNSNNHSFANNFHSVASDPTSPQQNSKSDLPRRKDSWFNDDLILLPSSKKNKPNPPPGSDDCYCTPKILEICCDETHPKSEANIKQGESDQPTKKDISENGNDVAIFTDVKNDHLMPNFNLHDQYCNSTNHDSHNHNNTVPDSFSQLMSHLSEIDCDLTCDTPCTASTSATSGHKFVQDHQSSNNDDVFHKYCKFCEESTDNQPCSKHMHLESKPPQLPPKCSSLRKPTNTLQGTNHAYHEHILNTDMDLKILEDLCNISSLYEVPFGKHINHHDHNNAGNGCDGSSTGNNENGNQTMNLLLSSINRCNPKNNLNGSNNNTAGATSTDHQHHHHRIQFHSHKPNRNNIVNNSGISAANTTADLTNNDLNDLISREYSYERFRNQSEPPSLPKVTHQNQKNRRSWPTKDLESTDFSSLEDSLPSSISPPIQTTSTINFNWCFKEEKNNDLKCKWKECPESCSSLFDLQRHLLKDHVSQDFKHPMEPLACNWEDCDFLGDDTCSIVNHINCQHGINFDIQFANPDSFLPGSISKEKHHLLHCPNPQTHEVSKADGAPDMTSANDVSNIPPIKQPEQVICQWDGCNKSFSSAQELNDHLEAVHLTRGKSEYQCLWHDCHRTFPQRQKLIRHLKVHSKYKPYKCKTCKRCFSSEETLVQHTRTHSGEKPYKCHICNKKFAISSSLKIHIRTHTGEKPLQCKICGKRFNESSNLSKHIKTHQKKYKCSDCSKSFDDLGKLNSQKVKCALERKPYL
Experiment: PBM E-score (8-mer binding enrichment) (E-score (-0.5 to 0.5)); higher = stronger / more preferred TF binding; most listed sequences are background and not binding sites
Conditions: protein concentration: 200 nM; construct: GST-full length
Summary of the method: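 PURExpress in vitro transcription/translation supplied GST-tagged yeast transcription factors, either full-length or DNA-binding domain. Applied at about 100-200 nM to universal all-10-mer Agilent arrays double-stranded by primer extension, the bound protein was detected with fluorescent anti-GST. E-scores, modified Wilcoxon-Mann-Whitney statistics, were given by the Universal PBM Analysis Suite to ungapped eight-base words pooled with their reverse complements after masliner normalisation.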

Sequence	PBM E-score
AGCCGGGC	-0.32
GGGATATA	-0.0315
GAGCAGGC	-0.247
AGCCCCGA	-0.135
TAGGCCAA	0.0266
ATCATAAG	0.0701
GTGGGTAA	0.0319
ACTGAAGT	-0.0118
GACAGGCA	-0.167
ATTCGATC	0.0445
CACGCGCC	-0.181
AAAGTATT	0.046
CGGTGTAA	-0.0163
GGTATAGA	0.102
CTCACGCA	0.112
ATCTTCTC	-0.0544
CTGCGCAG	-0.325
CCTGGATC	-0.253
CCATGCCC	-0.0153
ACTTGTTA	0.055
ACCCGCAA	0.234
CGAACCTA	0.00467
ATTATAAC	0.309
CTGGGCCA	-0.244
CAACGATA	0.101

Sequence	PBM E-score
ATGCCAAC	0.0793
AAATCTAG	-0.0883
GTGTTAGA	0.0246
GCGACTGA	-0.227
AGGAGTCG	-0.275
AGATCCGC	-0.282
CAGCACAG	-0.0595
GCTGGCAA	0.00702
ATTAGTGC	0.137
TCAGGCGA	-0.134
GAACAATA	0.275
CACAGCGG	-0.0445
AATAGGGA	-0.0102
ATTCCGTG	0.0147
ACTATCTA	-0.0107
CAGAAGAG	-0.299
CCGTCGCG	-0.16
AGGAAGAT	-0.194
GAGAAGAC	-0.215
AAATTTGT	0.143
GGTGTTTA	0.213
GTTCGGGA	0.00302
CCGAGAGG	0.131
GAGCAAGA	-0.12
CAGCCTCG	-0.0379

Sequence	PBM E-score
AGAATGTG	-0.208
CCTGCCCG	0.0581
GTGAGATA	-0.165
CACGCCAG	0.041
AGACTAAA	-0.0986
CCGTGCCG	-0.0543
CTTTACCA	0.0781
ATCCGAGC	-0.195
CCACGAAG	0.0949
CGTACAAA	0.196
GAACCTGC	0.0662
AAGCCGTC	-0.0916
ACTGTCAT	-0.00186
AGATTTAC	0.0547
GGAGAGAA	0.00984
AAACAGGC	-0.305
AAGAACAA	0.22
ATGGTACC	0.392
CTTCGATC	-0.0104
TGCACACA	-0.125
CACAACGG	-0.0874
CATGGCCG	0.215
ATGGAAGG	-0.043
CCTTGAGC	0.145
GATCCGTA	-0.166

Sequence	PBM E-score
CAAGAATA	0.0764
ATCTACGC	0.0293
TGGTAGAA	-0.0071
TAAAAGAA	0.111
CATACTGC	-0.118
CCCTACCG	0.115
CAGGCGGG	-0.0919
AGTGGCAC	-0.122
CGGTAACC	0.47
AACAGTCA	-0.131
ACAGTCAT	-0.188
ACCGCTCC	-0.145
ATGAAGAG	-0.127
GTTCAAAC	0.0497
ATGACTCA	-0.0492
AAGTGAGG	-0.164
CTTCGAAA	0.0989
GATCGCCC	-0.141
ACTAGGTC	0.00448
ATTACCCA	0.279
CGATTTAC	0.059
AATGTTTA	-0.0861
TCTTATCA	0.123
CGACGGCC	-0.117
ACGAGCCG	-0.059

Sequence	PBM E-score
ACAAGCTA	-0.0465
ACGGGGTG	0.0182
CCTTCACC	0.0411
AGATTGGG	0.00076
TGAATTAA	0.271
AAAACGCT	-0.131
AGGAATTC	-0.193
ACCGTCCA	-0.0528
CAACTATA	-0.0153
CAACGGTG	-0.0667
ATGCAGCA	-0.0906
CACCGCGA	0.0268
ACGTCAAT	-0.18
AAAATTTC	-0.0327
TGGGCTAA	-0.0319
CCTCGGCG	0.0712
AACGGTCG	0.114
AAGTCGAC	0.0711
AGGAGCCC	-0.255
AAAACACA	0.235
AAAAAAAG	0.227
CCTCAGTC	-0.175
CTTCAACA	0.0668
GATGAAAA	0.0619
AGCAATTC	-0.0959

Sequence	PBM E-score
AGGGCGCG	-0.018
AAATGCTC	-0.111
CTTCTTAA	0.206
AAACTCAG	-0.111
CGCCCGAA	-0.232
CCACCATC	-0.13
ATTCCATA	0.124
TCCTACAA	0.087
AGTCGCAG	-0.172
ACCAGGCT	-0.131
GGTTGGAA	0.106
TGCCCACA	-0.0685
CAACCCAA	0.272
GGCCACTA	0.199
GCCCCGTA	-0.118
ATGAGTAG	-0.0825
CGAGACAG	-0.0545
ACGTTGTC	-0.173
GAAAGTTA	0.247
AATAAACT	0.0972
GCCCTAGA	-0.0927
CATGAGCG	-0.227
GACCTATC	-0.0378
AAGCACGC	0.0161
ACATTTCG	-0.157

Sequence	PBM E-score
GTCCTGCA	-0.1
ATGGTCCG	0.0865
CCCCCCGA	-0.297
CAAGAAAC	0.217
CGGTGTTA	0.0409
ATGCGGGC	-0.224
ACATCAGT	0.0188
ATGCACGC	-0.126
CGTACAAC	0.146
CGGATAAG	-0.227
AATCTCGA	-0.018
CGTGGCCC	0.0577
GGGGTGCA	-0.051
CGACTGCG	-0.225
ACCATATA	0.192
GTCATGAC	0.159
CGAAACAA	0.1
ACCCTAGT	0.411
ACCAAATG	0.142
AAGAGCGA	-0.218
GAAACTCA	0.0578
GCAATCCA	-0.134
